{"source": "the antibiotic and cytotoxicity screens of Wong et al. (2023)", "key": {"HSkMC": {"tested_on": "HSkMC", "experiment": "cytotoxicity call (relative viability < 0.9)", "conditions": "10 µM"}, "HepG2": {"tested_on": "HepG2", "experiment": "cytotoxicity call (relative viability < 0.9)", "conditions": "10 µM"}, "S. aureus RN4220": {"tested_on": "S. aureus RN4220", "experiment": "growth inhibition call (relative growth <= 0.2)", "conditions": "50 µM"}}, "note": "The other results are listed elsewhere or left out."}
{"smiles": "C[C@@H]1CN([C@@H](C)CO)S(=O)(=O)c2ccc(-c3ccccc3F)cc2O[C@H]1CN(C)Cc1cncnc1", "values": [{"measurement": "cytotoxicity call", "setting": "HSkMC", "result": "inactive"}, {"measurement": "cytotoxicity call", "setting": "HepG2", "result": "inactive"}, {"measurement": "growth inhibition call", "setting": "S. aureus RN4220", "result": "inactive"}]}
{"smiles": "C[C@@H]1CCCCO[C@H](CN(C)Cc2ccc(C(=O)O)cc2)[C@@H](C)CN([C@@H](C)CO)C(=O)c2cc(NC(=O)c3ccccc3)ccc2O1", "values": [{"measurement": "cytotoxicity call", "setting": "HSkMC", "result": "inactive"}, {"measurement": "cytotoxicity call", "setting": "HepG2", "result": "inactive"}, {"measurement": "growth inhibition call", "setting": "S. aureus RN4220", "result": "inactive"}]}
{"smiles": "Cc1noc(C)c1NC(=O)N(C)C[C@H]1Oc2ccc(NC(=O)CCN3CCOCC3)cc2C(=O)N([C@H](C)CO)C[C@H]1C", "values": [{"measurement": "cytotoxicity call", "setting": "HSkMC", "result": "inactive"}, {"measurement": "cytotoxicity call", "setting": "HepG2", "result": "inactive"}, {"measurement": "growth inhibition call", "setting": "S. aureus RN4220", "result": "inactive"}]}
{"smiles": "C[C@@H]1CCCCO[C@H](CN(C)S(=O)(=O)c2ccccc2)[C@@H](C)CN([C@H](C)CO)C(=O)c2cc(NC(=O)Nc3ccc(C(F)(F)F)cc3)ccc2O1", "values": [{"measurement": "cytotoxicity call", "setting": "HSkMC", "result": "inactive"}, {"measurement": "cytotoxicity call", "setting": "HepG2", "result": "active"}, {"measurement": "growth inhibition call", "setting": "S. aureus RN4220", "result": "inactive"}]}
{"smiles": "O=C(C[C@H]1CC[C@H]2[C@@H](COC[C@@H](O)CN2C(=O)c2cnccn2)O1)N1CCN(c2ccccc2)CC1", "values": [{"measurement": "cytotoxicity call", "setting": "HSkMC", "result": "inactive"}, {"measurement": "cytotoxicity call", "setting": "HepG2", "result": "inactive"}, {"measurement": "growth inhibition call", "setting": "S. aureus RN4220", "result": "inactive"}]}
{"smiles": "C[C@H]1CN([C@@H](C)CO)C(=O)c2cccc(NS(=O)(=O)c3ccc(Cl)cc3)c2O[C@@H]1CN(C)S(=O)(=O)c1cn(C)cn1", "values": [{"measurement": "cytotoxicity call", "setting": "HSkMC", "result": "inactive"}, {"measurement": "cytotoxicity call", "setting": "HepG2", "result": "inactive"}, {"measurement": "growth inhibition call", "setting": "S. aureus RN4220", "result": "inactive"}]}
{"smiles": "C[C@H](CO)N1C[C@H](C)[C@@H](CN(C)S(=O)(=O)c2ccc(F)cc2)Oc2ccc(NS(=O)(=O)c3ccc(F)cc3)cc2CC1=O", "values": [{"measurement": "cytotoxicity call", "setting": "HSkMC", "result": "inactive"}, {"measurement": "cytotoxicity call", "setting": "HepG2", "result": "inactive"}, {"measurement": "growth inhibition call", "setting": "S. aureus RN4220", "result": "inactive"}]}
{"smiles": "C[C@@H]1CN([C@H](C)CO)S(=O)(=O)c2ccc(Br)cc2O[C@@H]1CN(C)CC1CCOCC1", "values": [{"measurement": "cytotoxicity call", "setting": "HSkMC", "result": "inactive"}, {"measurement": "cytotoxicity call", "setting": "HepG2", "result": "inactive"}, {"measurement": "growth inhibition call", "setting": "S. aureus RN4220", "result": "inactive"}]}
{"smiles": "CO[C@H]1CN(C)C(=O)c2cc(NS(C)(=O)=O)ccc2OC[C@H](C)N(C(=O)CN(C)C)C[C@@H]1C", "values": [{"measurement": "cytotoxicity call", "setting": "HSkMC", "result": "inactive"}, {"measurement": "cytotoxicity call", "setting": "HepG2", "result": "inactive"}, {"measurement": "growth inhibition call", "setting": "S. aureus RN4220", "result": "inactive"}]}
{"smiles": "CN1CCN(C(=O)C[C@H]2C=C[C@@H](NC(=O)Nc3ccccc3F)[C@@H](CO)O2)CC1", "values": [{"measurement": "cytotoxicity call", "setting": "HSkMC", "result": "inactive"}, {"measurement": "cytotoxicity call", "setting": "HepG2", "result": "inactive"}, {"measurement": "growth inhibition call", "setting": "S. aureus RN4220", "result": "inactive"}]}
{"smiles": "CCC(CO)NCCNC(CC)CO.Cl.Cl", "note": "(centres undefined)", "values": [{"measurement": "cytotoxicity call", "setting": "HSkMC", "result": "inactive"}, {"measurement": "cytotoxicity call", "setting": "HepG2", "result": "inactive"}, {"measurement": "growth inhibition call", "setting": "S. aureus RN4220", "result": "inactive"}]}
{"smiles": "CC(=O)c1ccc(OCc2nnn(CC(=O)NS(=O)(=O)Cc3ccccc3)c2-c2ccccc2)cc1", "values": [{"measurement": "cytotoxicity call", "setting": "HSkMC", "result": "inactive"}, {"measurement": "cytotoxicity call", "setting": "HepG2", "result": "inactive"}, {"measurement": "growth inhibition call", "setting": "S. aureus RN4220", "result": "inactive"}]}
{"smiles": "Cc1ccc(S(=O)(=O)Nc2ccc3c(c2)CC(=O)N([C@@H](C)CO)C[C@@H](C)[C@H](CN(C)S(=O)(=O)c2c(C)noc2C)O3)cc1", "values": [{"measurement": "cytotoxicity call", "setting": "HSkMC", "result": "inactive"}, {"measurement": "cytotoxicity call", "setting": "HepG2", "result": "inactive"}, {"measurement": "growth inhibition call", "setting": "S. aureus RN4220", "result": "inactive"}]}
{"smiles": "C[C@@H]1CCCCO[C@H](CN(C)Cc2ccc(C(F)(F)F)cc2)[C@@H](C)CN([C@H](C)CO)C(=O)c2cc(NC(=O)Nc3ccccc3)ccc2O1", "values": [{"measurement": "cytotoxicity call", "setting": "HSkMC", "result": "inactive"}, {"measurement": "cytotoxicity call", "setting": "HepG2", "result": "inactive"}, {"measurement": "growth inhibition call", "setting": "S. aureus RN4220", "result": "inactive"}]}
{"smiles": "Nc1ccc2c(c1)OCO2", "values": [{"measurement": "cytotoxicity call", "setting": "HSkMC", "result": "inactive"}, {"measurement": "cytotoxicity call", "setting": "HepG2", "result": "inactive"}, {"measurement": "growth inhibition call", "setting": "S. aureus RN4220", "result": "inactive"}]}
{"smiles": "CC(C)NC(=O)Nc1ccc2c(c1)C(=O)N([C@@H](C)CO)C[C@H](C)[C@H](CN(C)S(=O)(=O)c1ccccc1)O2", "values": [{"measurement": "cytotoxicity call", "setting": "HSkMC", "result": "inactive"}, {"measurement": "cytotoxicity call", "setting": "HepG2", "result": "inactive"}, {"measurement": "growth inhibition call", "setting": "S. aureus RN4220", "result": "inactive"}]}
{"smiles": "C[C@@H]1CCCCO[C@@H](CN(C)C(=O)Nc2ccccc2)[C@@H](C)CN([C@@H](C)CO)C(=O)c2cc(NS(=O)(=O)c3ccc(F)cc3)ccc2O1", "values": [{"measurement": "cytotoxicity call", "setting": "HSkMC", "result": "inactive"}, {"measurement": "cytotoxicity call", "setting": "HepG2", "result": "inactive"}, {"measurement": "growth inhibition call", "setting": "S. aureus RN4220", "result": "inactive"}]}
{"smiles": "N#CCCS(=O)(=O)c1ccc(N)cc1", "values": [{"measurement": "cytotoxicity call", "setting": "HSkMC", "result": "inactive"}, {"measurement": "cytotoxicity call", "setting": "HepG2", "result": "inactive"}, {"measurement": "growth inhibition call", "setting": "S. aureus RN4220", "result": "inactive"}]}
{"smiles": "C[C@@H]1CN([C@H](C)CO)C(=O)c2cc(NC(=O)CCN3CCOCC3)ccc2O[C@@H]1CN(C)S(=O)(=O)c1ccc(F)cc1", "values": [{"measurement": "cytotoxicity call", "setting": "HSkMC", "result": "inactive"}, {"measurement": "cytotoxicity call", "setting": "HepG2", "result": "inactive"}, {"measurement": "growth inhibition call", "setting": "S. aureus RN4220", "result": "inactive"}]}
{"smiles": "C[C@H](CO)N1C[C@H](C)[C@H](CN(C)Cc2ccc(Cl)c(Cl)c2)OCCCC[C@H](C)Oc2ccc(NC(=O)Nc3ccccc3)cc2C1=O", "values": [{"measurement": "cytotoxicity call", "setting": "HSkMC", "result": "inactive"}, {"measurement": "cytotoxicity call", "setting": "HepG2", "result": "inactive"}, {"measurement": "growth inhibition call", "setting": "S. aureus RN4220", "result": "inactive"}]}
{"smiles": "CC(=O)N(C)c1nc(N)n(-c2ccccc2)n1", "values": [{"measurement": "cytotoxicity call", "setting": "HSkMC", "result": "inactive"}, {"measurement": "cytotoxicity call", "setting": "HepG2", "result": "inactive"}, {"measurement": "growth inhibition call", "setting": "S. aureus RN4220", "result": "inactive"}]}
{"smiles": "COC(=O)Cn1nc(N)c2ccccc21", "values": [{"measurement": "cytotoxicity call", "setting": "HSkMC", "result": "inactive"}, {"measurement": "cytotoxicity call", "setting": "HepG2", "result": "inactive"}, {"measurement": "growth inhibition call", "setting": "S. aureus RN4220", "result": "inactive"}]}
{"smiles": "COc1ccc(NC(=O)Nc2cccc3c2O[C@H](CN(C)Cc2ccc(-c4ccccc4)cc2)[C@@H](C)CN([C@H](C)CO)C3=O)cc1", "values": [{"measurement": "cytotoxicity call", "setting": "HSkMC", "result": "inactive"}, {"measurement": "cytotoxicity call", "setting": "HepG2", "result": "inactive"}, {"measurement": "growth inhibition call", "setting": "S. aureus RN4220", "result": "inactive"}]}
{"smiles": "COc1ccc(S(=O)(=O)Nc2ccc3c(c2)C(=O)N([C@H](C)CO)C[C@H](C)[C@@H](CN(C)C(=O)NC2CCCCC2)OCCCC[C@@H](C)O3)cc1", "values": [{"measurement": "cytotoxicity call", "setting": "HSkMC", "result": "inactive"}, {"measurement": "cytotoxicity call", "setting": "HepG2", "result": "inactive"}, {"measurement": "growth inhibition call", "setting": "S. aureus RN4220", "result": "inactive"}]}
{"smiles": "C[C@H](CO)N1C[C@H](C)[C@H](CN(C)S(=O)(=O)c2ccc(F)cc2)Oc2ccc(NS(=O)(=O)c3cccs3)cc2C1=O", "values": [{"measurement": "cytotoxicity call", "setting": "HSkMC", "result": "inactive"}, {"measurement": "cytotoxicity call", "setting": "HepG2", "result": "inactive"}, {"measurement": "growth inhibition call", "setting": "S. aureus RN4220", "result": "inactive"}]}
{"smiles": "C[C@H]1CCCCO[C@@H](CN(C)Cc2ccc(C(F)(F)F)cc2)[C@@H](C)CN([C@@H](C)CO)C(=O)c2cc(NC(=O)C3CCCCC3)ccc2O1", "values": [{"measurement": "cytotoxicity call", "setting": "HSkMC", "result": "inactive"}, {"measurement": "cytotoxicity call", "setting": "HepG2", "result": "inactive"}, {"measurement": "growth inhibition call", "setting": "S. aureus RN4220", "result": "inactive"}]}
{"smiles": "Nc1ncnc2[nH]c(=S)[nH]c12", "values": [{"measurement": "cytotoxicity call", "setting": "HSkMC", "result": "inactive"}, {"measurement": "cytotoxicity call", "setting": "HepG2", "result": "inactive"}, {"measurement": "growth inhibition call", "setting": "S. aureus RN4220", "result": "inactive"}]}
{"smiles": "C[C@@H]1CCCCO[C@H](CN(C)C(=O)Nc2ccc3c(c2)OCO3)[C@H](C)CN([C@@H](C)CO)C(=O)c2cc(NC(=O)Nc3ccc(F)cc3)ccc2O1", "values": [{"measurement": "cytotoxicity call", "setting": "HSkMC (human skeletal muscle cells)", "result": "inactive"}, {"measurement": "cytotoxicity call", "setting": "HepG2", "result": "inactive"}, {"measurement": "growth inhibition call", "setting": "S. aureus RN4220", "result": "inactive"}]}
